# According to PubChem BioAssay (NCATS):
# Values joined by “and” are separate entries in the source; they are usually repeats but may differ in a detail not shown here. Equal entries are not always repeated. The inconclusive results got no clear call from the source; some entries with a clear call stand among them for comparison. Potencies beside an inconclusive call are fits to weak or partial responses and may not hold up. Where a structure was tested more than once in an assay, its records may differ in their call. Active and inactive are the calls of the source. Calls follow the shape of the dose curve; as a rule, active = well fitted inhibition curve with a large enough effect; inconclusive = small, poorly fitted or top-dose-only effect; inactive = flat fitted curve, though single readings scatter.
# Molecular target: Phospholipid hydroperoxide glutathione peroxidase GPX4 (Homo sapiens) (UniProt P36969)
# Chain of UniProt P36969 (P36969 whole entry, looked up): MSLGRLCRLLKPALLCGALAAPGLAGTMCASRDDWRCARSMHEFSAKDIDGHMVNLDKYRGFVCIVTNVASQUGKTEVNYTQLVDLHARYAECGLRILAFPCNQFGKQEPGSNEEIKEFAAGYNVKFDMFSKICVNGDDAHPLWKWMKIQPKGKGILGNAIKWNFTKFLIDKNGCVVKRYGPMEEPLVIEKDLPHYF
# Experiment: Primary qHTS Assay for Inhibitors of Recombinant Selenoprotein Glutathione Peroxidase 4 (GPX4) (AID 1845192); also: nearly all actives have a fitted effect of over 65% in size
# Conditions: recombinant GPX4, GR-coupled NADPH fluorescence, 15 min; series mostly up to 50 µM
# Text: Assay Provider: Elias S.J. Arner MD PhD.
# Department of Medical Biochemistry and Biophysics
# Karolinska Institutet, Solna, Stockholm, Sweden
# Selenoprotein glutathione peroxidases (GPX), like the ubiquitously expressed GPX1 and the ferroptosis modulator GPX4, enact their antioxidant activities by reducing hydroperoxides using glutathione. […] GPX1 and GPX4 inhibitors have thus shown promise as anti-cancer agents. Existing inhibitors are often promiscuous, or modulate GPX activity only indirectly, so novel direct inhibitors identified through screening against GPX1 and GPX4 could be valuable. Here, we developed optimized glutathione reductase (GR)-coupled GPX assays for the biochemical high-throughput screen (HTS) of almost 12,000 compounds with known mechanisms of action. Initial hits were triaged using a GR counter-screen, assessed for isoform specificity using a separate GPX2 assay, and were assessed for general selenocysteine-targeting activity using a thioredoxin reductase (TXNRD1) assay. With this suite of assays, we identified novel GPX1/GPX2- and GPX4-specific inhibitors and can here present a validated pipeline for future discovery research for selenoprotein-targeting agents.
# SEQUENCE No. (e.g., 1, 2, 3, etc.); […] (e.g., Cells, Incubation, Reagent, etc.); VALUE; DESCRIPTION.
# 1; Reagent 1; 3 uL; 333.33 nM GPx4 enzyme or no enzyme control in 1536-well, black, solid Greiner assay plate.
# 2; Compound; 25 nL; Kalypsis pin tool (Wako USA) equipped with a 1536-well pin head.
# 3; Incubation; 30 min; room temperature.
# 4; Reagent 2; 1 uL; 500 nM GR, 5 mM GSH, 2.5 mM NADPH solution
# 5; Reagent 3; 1 uL; 2.5 mM CHP in 50% EtOH.
# 6; Detection; Fluorescence; ViewLux microplate reader, excitation 340 nm and emission 450 nm.
# 7; Incubation; 15 min; room temperature.
# 8; Detection; Fluorescence; ViewLux microplate reader, excitation 340 nm and emission 450 nm.
# NOTES (numbers refer to Sequence numbers above)
# 1. 3 µL of 333.33 nM GPX4 and 0.016% BSA in assay buffer (50 mM Tris-HCl, 2 mM EDTA (pH 7.5), 150 mM NaCl) was added to columns 3-48 of 1536-well plates using a BioRAPTR Flying Reagent Dispenser (Let's Go Robotics (LGR), Carlsbad, CA). A no-enzyme control (0.01% BSA in TES assay buffer) was added to columns 1-2.
# 2. 25 nL, library and DMSO controls were added to each well with a pin tool (Kalypsys).
# 3. The assay plates were incubated for 30 minutes at room temperature.
# 4. 1 µL of master mix (500 nM glutathione reductase (GR), 5 mM reduced glutathione (GSH), 2.5 mM NADPH in assay buffer) was added.
# 5. 1 µL of cumene hydroperoxide (CHP) ([2.5 mM] in 50% EtOH) was then added within 5 minutes to initiate the reaction. Final concentrations were: 200 nM GPX4, 1 mM GSH, 0.5 mM CHP, 0.5 mM NADPH, 100 nM GR, 0.01% BSA.
# 6. Initial fluorescence readout (t=0) at 340/450 nm was measured using a ViewLux multimodal detector (PerkinElmer, Waltham, MA).
# 8. Endpoint fluorescence readout (t=15) at 340/450 nm was measured 15 min after room temperature incubation.
# Potency is read from the fitted curve at half-maximal effect; tags tell the direction and shape of the fitted curve.
Structure (SMILES),Potency,outcome
COc1cc(NCc2ccc3nc(N)nc(N)c3c2C)cc(OC)c1OC,"inconclusive: 22.4 µM [inhibitor, partial curve, poor fit]",
Nc1nc(=S)c2[nH]cnc2[nH]1,"inconclusive: 9.04 µM [inhibitor, partial curve]",
COc1cc(OC)c(NC(=O)Nc2cc(C)on2)cc1Cl,inactive,
COc1cccc2nc(-c3cccs3)nc(NN3C(=O)C=C(C)C3=O)c12,"inconclusive: 25.5 µM [inhibitor, partial curve]",
Cn1cc(-c2ccc3ncc(Cc4ccc5ncccc5c4)n3n2)cn1,"inconclusive: 7.18 µM [inhibitor, partial curve]",
NC(N)=NC(=O)c1nc(Cl)c(N)nc1N,"inconclusive: 35.5 µM [inhibitor, single point] and inconclusive: 11.2 µM [inhibitor, partial curve]",
Cc1cc(-c2ncc(CC(=O)Nc3ccc(-c4cnccn4)cn3)cc2C)ccn1,"inconclusive: 14.3 µM [inhibitor, partial curve]",
CC(C)c1ccccc1Cc1cc(C(=O)Nc2ccc(S(=O)(=O)c3ccccc3C(C)(C)C)cc2)c(O)c(O)c1O,"inconclusive: 22.7 µM [inhibitor, partial curve, poor fit]",
COc1cc(Nc2ncc3c(n2)-c2ccc(Cl)cc2C(c2c(F)cccc2OC)=NC3)ccc1C(=O)O,"inconclusive: 22.7 µM [inhibitor, single point]",
Cc1cccc(-c2[nH]c(C(C)(C)C)nc2-c2ccc3c(c2)OCO3)n1,inactive,
CC(C)Oc1ccc(C(=O)N[C@H](CNC(=O)CN(C)C)Cc2ccc(-c3cn4cccc([C@H](C)O)c4n3)cc2)cc1Cl,"inconclusive: 22.7 µM [inhibitor, single point]",
CCC(C(=O)O)C1CCC(C)C(C(C)C(O)C(C)C(=O)C(CC)C2OC3(C=CC(O)[C@@]4(CC[C@](C)(C5CC[C@@](O)(CC)C(C)O5)O4)O3)C(C)CC2C)O1 (stereo not given in full),"inconclusive: 11.2 µM [inhibitor, partial curve]",
C[C@H]1COC2=C1C(=O)C(=O)c1c2ccc2c1CCCC2(C)C,"inconclusive: 16.1 µM [inhibitor, partial curve]",
O=c1c(O)c(-c2ccc(O)cc2O)oc2cc(O)cc(O)c12,active: 10.1 µM,
S=P(N1CC1)(N1CC1)N1CC1,"inconclusive: 32.1 µM [inhibitor, single point]",
Cc1cnc(NC(=O)C2=C(O)c3ccccc3S(=O)(=O)N2C)s1,"inconclusive: 10 µM [inhibitor, partial curve]",
c1ccc(-c2oc3ncnc(NC[C@@H]4CCCO4)c3c2-c2ccccc2)cc1,"inconclusive: 32.1 µM [inhibitor, single point]",
C[C@H]1COc2c(N3CCN(C)CC3)c(F)cc3c(=O)c(C(=O)O)cn1c23,"inconclusive: 22.7 µM [inhibitor, partial curve] and inconclusive: 35.5 µM [inhibitor, single point]",
CC(C)(Sc1ccc(CCN(CCCCC2CCCCC2)C(=O)NC2CCCCC2)cc1)C(=O)O,active: 6.4 µM,
Cc1csc(-c2nnc(Nc3ccc(Oc4ncccc4-c4ccnc(N)n4)cc3)c3ccccc23)c1,"inconclusive: 18 µM [inhibitor, single point]",

Structure (SMILES),Potency,outcome
O=c1[nH]c(-c2ccc(C(F)(F)F)cc2)nc2c1CSCC2,"inconclusive: 16.1 µM [inhibitor, partial curve]",
CCCCCCCCCCCCCCCC(=O)O[C@H]1[C@@H](O)[C@@H](O)[C@@H]([C@H](NC(=O)[C@@H]2C[C@@H](CCC)CN2C)[C@H](C)Cl)O[C@@H]1SC,inactive,
CN1c2ccccc2C(=O)N2CCc3c([nH]c4ccccc34)C21 (stereo not given),"inconclusive: 25.5 µM [inhibitor, partial curve, poor fit]",
c1cc(N[C@@H]2CCNC2)nc(-c2cnc3ccc(-c4cn[nH]c4)cn23)c1,active: 25.5 µM,
CCN(CC)CCCCNc1nc2cc(Cl)c(Cl)cc2nc1-c1ccc(-c2cccs2)s1,active: 20.2 µM,
Cc1cc(OCCCS(C)(=O)=O)cc(C)c1-c1cccc(COc2ccc3c(c2)OC[C@H]3CC(=O)O)c1,"inconclusive: 20.2 µM [inhibitor, single point]",
N#CC(c1ccc(Cl)cc1)c1c(Cl)cc(-n2ncc(=O)[nH]c2=O)cc1Cl (stereo not given),"inconclusive: 20.2 µM [inhibitor, single point] and inconclusive: 25.5 µM [inhibitor, partial curve]",
Cc1ccc(Nc2nccc(N(C)c3ccc4c(C)n(C)nc4c3)n2)cc1S(N)(=O)=O,"inconclusive: 3.16 µM [inhibitor, partial curve]",
CC(C)(S)[C@@H](N)C(=O)O,,inactive [at 4.52 µM]
C=C1c2cccc(O)c2C(O)=C2C(=O)[C@@]3(O)C(O)=C(C(N)=O)C(=O)[C@@H](N(C)C)[C@@H]3[C@@H](O)[C@H]12,active: 11.4 µM,
CN(CC(=O)N(Cc1ccc(C2CCCCC2)cc1)c1ccc(C(=O)O)c(O)c1)S(=O)(=O)c1c(F)c(F)c(F)c(F)c1F,active: 11.4 µM,
Oc1ccc(C2CNCCc3c2cc(O)c(O)c3Cl)cc1 (stereo not given),"inconclusive: 32.1 µM [inhibitor, single point]",
NCc1c[nH]c(=S)n1[C@H]1CCc2c(F)cc(F)cc2C1,"inconclusive: 25.5 µM [inhibitor, single point]",
Cc1ccc(S(=O)(=O)OCC(=O)Nc2ccc(C(=O)O)c(O)c2)cc1,"inconclusive: 20.2 µM [inhibitor, single point]",
O=C(Nc1nnc(-c2ccco2)o1)c1cc(-c2ccccc2)nc2ccccc12,"inconclusive: 18 µM [inhibitor, partial curve]",
COc1ccc2nc(S(=O)Cc3ncc(C)c(OC)c3C)[nH]c2c1 (stereo not given),"active: 11.4 µM and inconclusive: 10.1 µM [inhibitor, partial curve]",
CN(C)CCCC1(c2ccc(F)cc2)OCc2cc(C#N)ccc21 (stereo not given),inactive,
Clc1ccc2ncc(-c3cccc(NC4CNC4)n3)n2c1,"inconclusive: 22.7 µM [inhibitor, partial curve, poor fit]",
Cc1c(C(=O)NN2CCCCC2)nn(-c2ccc(Cl)cc2Cl)c1-c1ccc(Cl)cc1,inactive,
Cc1cc(Nc2nc(N[C@@H](C)c3ccc(F)cc3)c(C#N)cc2F)n[nH]1,"inconclusive: 18 µM [inhibitor, partial curve]",
